# Test results as given in PubChem BioAssay AID2675 (National Center for Advancing Translational Sciences (NCATS), 2010).
# Among all 280,000 compounds or so, about 100 (0.036%) were called active. Inconclusive means that the source gave no clear call. Such entries were picked first, then a sample of the others. Calls follow the shape of the dose curve; as a rule, active = well fitted inhibition curve with a large enough effect in the signal ratio, with a control signal flat (not every such curve was filed as active); inconclusive = small, poorly fitted or top-dose-only effect, or effect the other way, or a change in a side signal; inactive = no such curve, though single readings can be large or run the other way; the % refers to the signal ratio. Where the call is inconclusive, the potency comes from a doubtful curve fit. “Side channel” marks fits to a control or component signal instead of the main read-out.
# Molecular target: Muscleblind-like protein 1 (Homo sapiens) (UniProt Q9NR56)
# Assay: qHTS Assay for Inhibitors of MBNL1-poly(CUG) RNA binding
# Details: TR-FRET MBNL1-His/biotin-(CUG)12 binding, 665/545 ratio; activity change, negative = inhibition: at 57.5 µM (top of the series)
# How it was run: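 Ratiometric TR-FRET (665 over 545 nm, excitation 340 nm) tracks disruption of MBNL1-His/biotin-(CUG)12 complex after 60 min at room temperature, with compounds at 92 nM to 58 uM final.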
# % is scaled to controls: 0 for no effect and ±100 for the full control effect; potency is read from the fitted curve at half-maximal effect; tags tell the direction and shape of the fitted curve or compound fluorescence and quenching.
# Chain of UniProt Q9NR56 (Q9NR56 whole entry, looked up): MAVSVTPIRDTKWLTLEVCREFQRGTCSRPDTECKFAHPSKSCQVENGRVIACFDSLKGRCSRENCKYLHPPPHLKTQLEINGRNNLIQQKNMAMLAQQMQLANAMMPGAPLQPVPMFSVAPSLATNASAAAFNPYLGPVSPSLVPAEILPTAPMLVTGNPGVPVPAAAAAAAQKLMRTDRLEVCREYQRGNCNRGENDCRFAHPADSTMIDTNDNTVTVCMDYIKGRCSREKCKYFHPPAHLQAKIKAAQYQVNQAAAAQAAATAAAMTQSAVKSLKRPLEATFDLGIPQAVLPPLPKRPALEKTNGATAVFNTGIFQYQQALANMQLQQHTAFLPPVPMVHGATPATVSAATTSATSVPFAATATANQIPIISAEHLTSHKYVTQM
SMILES,Potency,"activity change, negative = inhibition"
N#Cc1cc2cc3c(cc2nc1N1CCCCC1)OCCO3,"inconclusive: 14.1 µM [quencher, side channel, partial curve, poor fit]",
Cc1ccc(OCC(=O)N/N=C\c2ccc(C)o2)c([N+](=O)[O-])c1,"inconclusive: 15.8 µM [quencher, side channel, partial curve]",
COc1ccc(-c2nsc3c(SCc4ccccc4)ncnc23)cc1,"inconclusive: 0.631 µM [fluorescent, side channel, partial curve]",
O=C(COc1ccc([N+](=O)[O-])cc1)Nc1ccc(S(=O)(=O)N2CCOCC2)cc1,"inconclusive: 8.91 µM [quencher, side channel, partial curve]",
O=c1[nH]c(-c2ccc(O)cc2)nc2scc(-c3cccs3)c12,,inactive: 85.1%
CC(=O)c1sc(N/N=C\c2ccccc2O)nc1C,"inconclusive: 15.8 µM [quencher, side channel, partial curve]",
CNCC/C=C1/c2ccccc2CSc2ccccc21,"inconclusive: 63.1 µM [inhibitor, single point]",
COc1cccc(NC(=O)c2cc3c(=O)n4ccccc4nc3n(CC(C)C)c2=N)c1,,inactive: -4.47%
COc1ccc(CNC(=O)c2ccc3nccnc3c2)cc1,"inconclusive: 14.1 µM [quencher, side channel, partial curve]",
CCOc1cc(/C=N/O)ccc1OCc1ccc([N+](=O)[O-])cc1,"inconclusive: 35.5 µM [quencher, side channel, partial curve]",
OCCn1c(-c2ccc3c(c2)OCO3)csc1=Nc1ccccc1,,inactive: 5.99%
COc1ccc(/C=C2/NC(=O)CNC2=O)cc1,"inconclusive: 15.8 µM [quencher, side channel, partial curve]",
COc1cc(OC)c(C(=O)/C=C/c2ccc(OCc3ccccc3)c(OC)c2)c(OC)c1,,inactive: 4.47%
CN(C)S(=O)(=O)N1CCN(c2ccc([N+](=O)[O-])c(N3CCCCC3)c2)CC1,"inconclusive: 12.6 µM [quencher, side channel, partial curve]",
Cc1ccc(NC(=O)c2ccc3c(c2)C(=O)N(CC2CCCO2)C3=O)cc1C (stereo not given),"inconclusive: 15.8 µM [quencher, side channel, partial curve]",
CCN(CC)C(=O)CCc1nnc(Cc2cccc(C(F)(F)F)c2)o1,"inconclusive: 8.91 µM [quencher, side channel, partial curve]",
CCOc1ccccc1NC(=O)CN(C)S(=O)(=O)c1cccc2nsnc12,"inconclusive: 3.55 µM [quencher, side channel, full curve]",
Cc1cc(NC(=O)c2ccc(Cn3nc(C)c(Br)c3C)o2)no1,,inactive: -0.412%
Nc1ccc2oc(=O)c(-c3ccccc3)cc2c1,"inconclusive: 14.1 µM [quencher, side channel, partial curve]",
CCS(=O)(=O)N1CCN(c2ccc([N+](=O)[O-])c(NCC3CCCO3)c2)CC1 (stereo not given),"inconclusive: 7.94 µM [quencher, side channel, partial curve]",

SMILES,Potency,"activity change, negative = inhibition"
COc1ccc([N+](=O)[O-])cc1NC(=S)Nc1ccccc1,"inconclusive: 25.1 µM [quencher, side channel, partial curve]",
c1ccc(N2CCN(c3nc(-c4ccccn4)nc4ccccc34)CC2)cc1,,inactive: 14.4%
N/C(=N\OC(=O)COc1ccc(Br)cc1Cl)c1cccnc1,"inconclusive: 7.08 µM [quencher, side channel, single point]",
N#CC(c1cccc(Cl)c1)c1ccc2c(C(F)(F)F)cc(C(F)(F)F)nc2n1 (stereo not given),"inconclusive: 25.1 µM [quencher, side channel, partial curve]",
O=C(NCCc1ccccc1)C1CCC(CNS(=O)(=O)c2cccs2)CC1 (stereo not given),,inactive: 2.34%
NC(=O)NC1CCCc2c1[nH]c1ccc(Cl)cc21 (stereo not given),"inconclusive: 0.141 µM [quencher, side channel, full curve, poor fit]",
CN(C)/C=C1\SC(=S)N(N2C(=O)C3C4C=CC(C4)C3C2=O)C1=O (stereo not given),"inconclusive: 25.1 µM [quencher, side channel, partial curve]",
O=C(NCCc1c[nH]c2ccccc12)c1cc([N+](=O)[O-])cc([N+](=O)[O-])c1,"inconclusive: 4.47 µM [quencher, side channel, full curve]",
COc1ccc(/C=C(/NC(=O)c2ccc(C)cc2)C(=O)N2CCCC2)cc1OC,,inactive: 5.63%
COc1ccc2c(c1)N(C)/C(=C/c1cccc[n+]1C)S2,"inconclusive: 8.91 µM [quencher, side channel, partial curve]",
O=C1C=CC(=O)N1c1ccc(Sc2ccc([N+](=O)[O-])cc2)cc1,"inconclusive: 14.1 µM [quencher, side channel, partial curve]",
CNC(=O)[C@@H]1C[C@H]1[C@@H](NC(=O)OCc1ccccc1)c1ccccc1,,inactive: -11.3%
O=C(c1cc(COc2c(F)cccc2F)on1)N(Cc1ccccc1)CC1CC1,,inactive: 1.29%
COc1ccc(N2C(=O)CC(Sc3ccccc3C(=O)O)C2=O)c([N+](=O)[O-])c1 (stereo not given),"inconclusive: 22.4 µM [quencher, side channel, single point]",
Cc1ncc([N+](=O)[O-])n1CCOC(=O)NC(NCc1ccccc1)C(Cl)(Cl)Cl (stereo not given),"inconclusive: 35.5 µM [quencher, side channel, single point]",
CN(CCOc1ccccc1)CC(O)COCc1ccccc1F (stereo not given),,inactive: -3.66%
CCOc1cc(CNCCSc2nnnn2C)cc(Br)c1OCc1ccc(F)cc1,"inconclusive: 22.4 µM [fluorescent, side channel, partial curve]",
CCSc1nnc(NC(=O)c2ccccn2)s1,,inactive: -4.49%
CCSc1nc2ccccc2n1C(=O)/C=C\c1ccc(OC)c(OC)c1,,inactive: -1.53%
COc1cc2c(cc1OC)CN(C(=O)COc1ccccc1[N+](=O)[O-])CC2,"inconclusive: 12.6 µM [quencher, side channel, partial curve]",
